{
  "sequences": {"note": "Sequences of proteins named here, by UniProt entry; tags and fusion partners are left off. A change or cut given only in a name is not applied to a line headed by its entry.", "UniProt Q99496": "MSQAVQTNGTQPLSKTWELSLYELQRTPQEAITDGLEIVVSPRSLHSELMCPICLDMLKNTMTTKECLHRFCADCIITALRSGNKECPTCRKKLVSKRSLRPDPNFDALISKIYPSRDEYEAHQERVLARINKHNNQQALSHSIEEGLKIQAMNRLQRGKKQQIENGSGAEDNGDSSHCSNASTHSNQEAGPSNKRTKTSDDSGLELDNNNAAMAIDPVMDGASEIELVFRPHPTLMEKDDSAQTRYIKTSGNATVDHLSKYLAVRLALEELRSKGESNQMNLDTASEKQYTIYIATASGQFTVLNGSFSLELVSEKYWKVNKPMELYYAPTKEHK", "UniProt Q9H9S0": "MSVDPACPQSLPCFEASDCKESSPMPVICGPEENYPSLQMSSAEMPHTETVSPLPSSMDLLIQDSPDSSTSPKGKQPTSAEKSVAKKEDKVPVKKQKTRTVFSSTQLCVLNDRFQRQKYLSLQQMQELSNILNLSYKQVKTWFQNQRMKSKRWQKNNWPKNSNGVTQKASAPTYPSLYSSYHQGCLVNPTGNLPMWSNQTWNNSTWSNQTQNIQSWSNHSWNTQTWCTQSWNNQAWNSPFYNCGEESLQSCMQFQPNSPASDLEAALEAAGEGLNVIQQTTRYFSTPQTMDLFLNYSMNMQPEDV", "UniProt Q01860": "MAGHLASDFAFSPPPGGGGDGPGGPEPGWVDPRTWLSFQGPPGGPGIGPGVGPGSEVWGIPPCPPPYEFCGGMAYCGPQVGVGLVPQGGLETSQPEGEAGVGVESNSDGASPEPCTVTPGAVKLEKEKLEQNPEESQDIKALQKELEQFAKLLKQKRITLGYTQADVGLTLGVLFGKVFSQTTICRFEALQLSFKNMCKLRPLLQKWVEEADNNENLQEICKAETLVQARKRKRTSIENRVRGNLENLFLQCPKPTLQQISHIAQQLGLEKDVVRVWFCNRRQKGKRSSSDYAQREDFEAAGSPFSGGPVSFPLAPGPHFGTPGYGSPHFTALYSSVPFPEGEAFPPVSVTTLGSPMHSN", "UniProt P48431": "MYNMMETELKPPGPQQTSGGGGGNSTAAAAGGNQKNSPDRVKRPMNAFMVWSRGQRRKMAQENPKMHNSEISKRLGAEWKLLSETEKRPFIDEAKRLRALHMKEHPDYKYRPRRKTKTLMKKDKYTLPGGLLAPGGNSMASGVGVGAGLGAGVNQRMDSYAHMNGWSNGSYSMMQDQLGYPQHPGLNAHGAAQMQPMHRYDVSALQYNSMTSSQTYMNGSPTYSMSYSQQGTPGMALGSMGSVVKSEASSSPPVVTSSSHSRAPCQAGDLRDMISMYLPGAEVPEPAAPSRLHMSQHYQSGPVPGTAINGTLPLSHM"},
  "source": "paper PMC8121881",
  "molecules": {"B1": {"name": "PHC1 (protein, UniProt P78364 1-1004)", "chain": "METESEQNSNSTNGSSSSGGSSRPQIAQMSLYERQAVQALQALQRQPNAAQYFHQFMLQQQLSNAQLHSLAAVQQATIAASRQASSPNTSTTQQQTTTTQASINLATTSAAQLISRSQSVSSPSATTLTQSVLLGNTTSPPLNQSQAQMYLRPQLGNLLQVNRTLGRNVPLASQLILMPNGAVAAVQQEVPSAQSPGVHADADQVQNLAVRNQQASAQGPQMQGSTQKAIPPGASPVSSLSQASSQALAVAQASSGATNQSLNLSQAGGGSGNSIPGSMGPGGGGQAHGGLGQLPSSGMGGGSCPRKGTGVVQPLPAAQTVTVSQGSQTEAESAAAKKAEADGSGQQNVGMNLTRTATPAPSQTLISSATYTQIQPHSLIQQQQQIHLQQKQVVIQQQIAIHHQQQFQHRQSQLLHTATHLQLAQQQQQQQQQQQQQQQPQATTLTAPQPPQVPPTQQVPPSQSQQQAQTLVVQPMLQSSPLSLPPDAAPKPPIPIQSKPPVAPIKPPQLGAAKMSAAQQPPPHIPVQVVGTRQPGTAQAQALGLAQLAAAVPTSRGMPGTVQSGQAHLASSPPSSQAPGALQECPPTLAPGMTLAPVQGTAHVVKGGATTSSPVVAQVPAAFYMQSVHLPGKPQTLAVKRKADSEEERDDVSTLGSMLPAKASPVAESPKVMDEKSSLGEKAESVANVNANTPSSELVALTPAPSVPPPTLAMVSRQMGDSKPPQAIVKPQILTHIIEGFVIQEGAEPFPVGCSQLLKESEKPLQTGLPTGLTENQSGGPLGVDSPSAELDKKANLLKCEYCGKYAPAEQFRGSKRFCSMTCAKRYNVSCSHQFRLKRKKMKEFQEANYARVRRRGPRRSSSDIARAKIQGKCHRGQEDSSRGSDNSSYDEALSPTSPGPLSVRAGHGERDLGNPNTAPPTPELHGINPVFLSSNPSRWSVEEVYEFIASLQGCQEIAEEFRSQEIDGQALLLLKEEHLMSAMNIKLGPALKICAKINVLKET"}, "B2": {"name": "RYBP (protein, UniProt Q8N488 1-228)", "chain": "MTMGDKKSPTRPKRQAKPAADEGFWDCSVCTFRNSAEAFKCSICDVRKGTSTRKPRINSQLVAQQVAQQYATPPPPKKEKKEKVEKQDKEKPEKDKEISPSVTKKNTNKKTKPKSDILKDPPSEANSIQSANATTKTSETNHTSRPRLKNVDRSTAQQLAVTVGNVTVIITDFKEKTRSSSTSSSTVTSSAGSEQQNQSSSGSESTDKGSSRSSTPKGDMSAVNDESF"}, "B3": {"name": "Phc1-FLAG (protein, UniProt Q64028 1-1010)", "chain": "METESEQNSSSTNGSSSSGASSRPQIAQMSLYERQAVQALQALQRQPNAAQYFHQFMLQQQLSNAQLHSLAAVQQATIAASRQASSPNSSTAQQQTATTQASMNLATTSAAQLISRSQSVSSPSATTLTQSVLLGNTTSPPLNQSQAQMYLRPQLGNLLQVNRTLGRNVPLASQLILMPNGAVAAVQQEVPPAQSPGVHADADQVQNLAVRNQQASAQGPQMPGSTQKAIPPGASPVSGLSQTSSQALAVAQASSGASGQSLNLSQAGGGSGNSLPGSMGPGGGGQAPGGLGQLPSSGLTGGSCPRKGTGVVQPLPAAQTVTVSQGSQTEAESAAAKKAEADGSGQQSVGMNLTRTATPAPSQTLISSATYTQIQPHSLIQQQQQIHLQQKQVVIQQQIAIHHQQQFQHRQSQLLHTATHLQLAQQQQQQQQQQQQQQQQQQQQQQGTTLTAPQPPQVPPTQQVPPSQSQQQAQTLVVQPMLQSSPLTLPPEPTSKPPIPIQSKPPVAPIKPPQLGAAKMSATQQPPPHIPVQVVGTRQPGSAQAQALGLAQLAAAVPTPRGITGAVQPGQAHLASSPPSSQAAPGALQECPPALAAGMTLAPVQGTAHVVKGGPTASSPVVAQVPAAFYMQSVHLPGKAQTLAVKRKAESEEERDDLSALASVLPTKASPAAESPKVIEEKNSLGEKAEPVASLNANPPNSDLVALAPTPSAPPPTLALVSRQMGDSKPPQAIVKPQILTHIIEGFVIQEGAEPFPVGCSQFLKETKKPLQAGLPTGLNESQPSGPLGGDSPSVELEKKANLLKCEYCGKYAPAEQFRGSKRFCSMTCAKRYNVSCSHQFRLKRKKMKEFQEASYARVRRRGPRRSSSDIARAKIQGKRHRGQEDSSRGSDNSSYDEALSPTSPGPLSVRAGHGERDLGNTITTPSTPELQGINPVFLSSNPSQWSVEEVYEFIASLQGCQEIAEEFRSQEIDGQALLLLKEEHLMSAMNIKLGPALKICAKINVLKET"}, "B4": {"name": "Rybp (protein, UniProt Q8CCI5 1-228)", "chain": "MTMGDKKSPTRPKRQAKPAADEGFWDCSVCTFRNSAEAFKCSICDVRKGTSTRKPRINSQLVAQQVAQQYATPPPPKKEKKEKVEKPDKEKPEKDKDISPSVTKKNTNKKTKPKSDILKDPPSEANSIQSANATTKTSETNHTSRPRLKNVDRSTAQQLAVTVGNVTVIITDFKEKTRSSSTSSSTVTSSAGSEQQNQSSSGSESTDKGSSRSSTPKGDMSAVNDESF"}},
  "key": {"[1]": {"target": "T1, PHC1 (human (endogenous in H9 hESCs)) (UniProt P78364)", "T1 sequence": "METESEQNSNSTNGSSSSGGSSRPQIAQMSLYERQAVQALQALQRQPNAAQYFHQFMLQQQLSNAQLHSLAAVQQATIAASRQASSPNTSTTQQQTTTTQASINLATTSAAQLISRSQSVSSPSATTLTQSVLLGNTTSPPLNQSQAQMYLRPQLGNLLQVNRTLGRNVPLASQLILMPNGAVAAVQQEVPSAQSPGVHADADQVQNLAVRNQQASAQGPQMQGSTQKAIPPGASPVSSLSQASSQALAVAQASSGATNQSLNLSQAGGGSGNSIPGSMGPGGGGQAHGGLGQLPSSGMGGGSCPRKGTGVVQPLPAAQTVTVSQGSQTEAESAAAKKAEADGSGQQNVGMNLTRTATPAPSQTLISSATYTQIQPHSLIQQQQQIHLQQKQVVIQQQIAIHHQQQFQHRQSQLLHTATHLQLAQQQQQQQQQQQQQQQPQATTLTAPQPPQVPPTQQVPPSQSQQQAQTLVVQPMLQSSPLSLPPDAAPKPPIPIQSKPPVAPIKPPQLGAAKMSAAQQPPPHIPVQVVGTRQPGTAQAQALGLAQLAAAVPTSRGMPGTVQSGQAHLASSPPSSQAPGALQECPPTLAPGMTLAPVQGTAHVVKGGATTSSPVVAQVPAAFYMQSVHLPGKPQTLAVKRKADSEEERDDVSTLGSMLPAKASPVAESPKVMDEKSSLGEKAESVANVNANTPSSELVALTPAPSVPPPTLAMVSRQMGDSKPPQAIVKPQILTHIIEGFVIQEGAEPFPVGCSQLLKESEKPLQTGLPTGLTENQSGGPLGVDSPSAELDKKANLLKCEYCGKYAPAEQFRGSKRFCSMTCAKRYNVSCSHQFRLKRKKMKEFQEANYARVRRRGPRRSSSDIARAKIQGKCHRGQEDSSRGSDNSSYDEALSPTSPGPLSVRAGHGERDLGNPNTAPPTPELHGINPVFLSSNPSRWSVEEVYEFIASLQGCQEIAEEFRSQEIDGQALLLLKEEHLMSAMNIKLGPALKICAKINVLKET", "experiment": "co-IP; endogenous proteins from total hESC extracts; antibodies against RING1B or PHC1 overnight at 4 °C, Protein A/G magnetic beads, immunoblotting; RING1B IP also done after shRNA knockdown of PHC1"}, "PHC1-FLAG": {"target": "T2, PHC1-FLAG (UniProt P78364)", "T2 sequence": "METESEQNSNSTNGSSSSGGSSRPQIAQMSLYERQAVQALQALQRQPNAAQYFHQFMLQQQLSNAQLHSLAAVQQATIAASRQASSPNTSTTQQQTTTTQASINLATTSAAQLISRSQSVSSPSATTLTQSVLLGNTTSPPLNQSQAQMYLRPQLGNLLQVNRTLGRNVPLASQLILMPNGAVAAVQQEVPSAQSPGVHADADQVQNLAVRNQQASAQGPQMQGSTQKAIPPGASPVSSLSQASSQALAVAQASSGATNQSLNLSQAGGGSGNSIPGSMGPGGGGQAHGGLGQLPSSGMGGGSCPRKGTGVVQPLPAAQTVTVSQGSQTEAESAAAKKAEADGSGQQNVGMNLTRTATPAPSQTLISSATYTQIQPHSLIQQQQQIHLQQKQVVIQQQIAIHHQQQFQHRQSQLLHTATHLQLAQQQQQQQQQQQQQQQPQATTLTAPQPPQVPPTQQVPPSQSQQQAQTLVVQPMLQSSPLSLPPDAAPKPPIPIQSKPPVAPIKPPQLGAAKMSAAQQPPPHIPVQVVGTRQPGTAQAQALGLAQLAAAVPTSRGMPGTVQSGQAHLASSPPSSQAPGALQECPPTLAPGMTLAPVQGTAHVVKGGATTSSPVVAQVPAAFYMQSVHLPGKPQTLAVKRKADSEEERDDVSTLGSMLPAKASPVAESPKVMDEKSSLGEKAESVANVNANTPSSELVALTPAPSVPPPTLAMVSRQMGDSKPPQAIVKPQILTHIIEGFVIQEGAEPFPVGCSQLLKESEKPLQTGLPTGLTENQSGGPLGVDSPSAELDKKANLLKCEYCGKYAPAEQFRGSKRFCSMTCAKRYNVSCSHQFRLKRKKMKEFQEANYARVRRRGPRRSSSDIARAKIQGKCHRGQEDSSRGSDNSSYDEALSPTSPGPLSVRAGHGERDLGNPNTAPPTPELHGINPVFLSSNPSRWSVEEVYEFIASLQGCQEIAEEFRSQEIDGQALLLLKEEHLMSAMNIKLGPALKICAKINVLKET", "experiment": "co-IP; nuclear lysates of HEK293T cells transfected with PHC1-FLAG and NANOG-HA; anti-FLAG Affinity Gel or anti-HA magnetic beads overnight at 4 °C; washes with 150 mM NaCl, 50 mM Tris, 1 mM MgCl2, 1% NP-40, pH 7.5"}, "[2]": {"target": "RING1B (human (endogenous in H9 hESCs)) (UniProt Q99496)", "experiment": "co-IP; endogenous proteins from total hESC extracts; antibodies against RING1B or PHC1 overnight at 4 °C, Protein A/G magnetic beads, immunoblotting; RING1B IP also done after shRNA knockdown of PHC1"}, "[3]": {"target": "RING1B (human (endogenous in H9 hESCs)) (UniProt Q99496)", "experiment": "co-IP; endogenous proteins from total hESC extracts; antibodies against RING1B or PHC1 overnight at 4 °C, Protein A/G magnetic beads, immunoblotting; RING1B IP also done after shRNA knockdown of PHC1", "remark": "listed apart in the source"}, "[4]": {"target": "T3, Nanog (mouse (endogenous in mESCs)) (UniProt Q80Z64)", "T3 sequence": "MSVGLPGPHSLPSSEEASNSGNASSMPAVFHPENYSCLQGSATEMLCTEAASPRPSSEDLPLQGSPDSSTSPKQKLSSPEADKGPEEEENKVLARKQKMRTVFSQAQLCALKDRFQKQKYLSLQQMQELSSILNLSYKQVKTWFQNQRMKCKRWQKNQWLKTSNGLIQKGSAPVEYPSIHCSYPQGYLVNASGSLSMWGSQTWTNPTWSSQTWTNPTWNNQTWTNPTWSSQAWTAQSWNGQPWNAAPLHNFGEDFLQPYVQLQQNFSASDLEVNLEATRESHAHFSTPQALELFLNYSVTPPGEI", "experiment": "co-IP; mESCs overexpressing exogenous Phc1-FLAG; proteins cross-linked with DTBP, nuclear lysates, anti-Nanog antibody at 4 °C overnight, Protein A/G magnetic beads; cross-links reversed with DTT before immunoblotting"}},
  "note": "Like-named read-outs stand apart in the source and are kept apart here. No constants are given. Whether binding was seen depends on the method and setting. Binding seen in cells or lysates may run through a third protein. Some results given as binding are weak or reduced against the parent protein; the word gives no strength. For some of these results: Sequences can lack the tags named with a protein.",
  "data": [
    {"molecule": "NANOG (from UniProt Q9H9S0 1-305)", "values": [
      {"measurement": "binding", "setting": "[1]", "result": "binds"}
    ]},
    {"molecule": "NANOG-HA (from UniProt Q9H9S0 1-305)", "values": [
      {"measurement": "binding", "setting": "PHC1-FLAG", "result": "binds"}
    ]},
    {"molecule": "OCT4 (from UniProt Q01860 1-360)", "values": [
      {"measurement": "binding", "setting": "[1]", "result": "no binding"}
    ]},
    {"molecule": "OCT4 (from UniProt Q01860 1-360) (other; other documents disagree on this pair)", "values": [
      {"measurement": "binding", "setting": "[2]", "result": "no binding"}
    ]},
    {"molecule": "SOX2 (from UniProt P48431 1-317)", "values": [
      {"measurement": "binding", "setting": "[1]", "result": "no binding"},
      {"measurement": "binding", "setting": "[2]", "result": "no binding"}
    ]},
    {"molecule": "B1", "values": [
      {"measurement": "binding", "setting": "[3]", "result": "binds"}
    ]},
    {"molecule": "B2", "values": [
      {"measurement": "binding", "setting": "[3]", "result": "binds"}
    ]},
    {"molecule": "B3", "values": [
      {"measurement": "binding", "setting": "[4]", "result": "binds"}
    ]},
    {"molecule": "B4", "values": [
      {"measurement": "binding", "setting": "[4]", "result": "no binding"}
    ]}
  ]
}
